For 22 molecules, binding signal results are on record in paper PMC12136788.

T1: UNK ZnF1-6 (called full-length) (human, UniProt Q9C0B0 30-357)
T1 sequence: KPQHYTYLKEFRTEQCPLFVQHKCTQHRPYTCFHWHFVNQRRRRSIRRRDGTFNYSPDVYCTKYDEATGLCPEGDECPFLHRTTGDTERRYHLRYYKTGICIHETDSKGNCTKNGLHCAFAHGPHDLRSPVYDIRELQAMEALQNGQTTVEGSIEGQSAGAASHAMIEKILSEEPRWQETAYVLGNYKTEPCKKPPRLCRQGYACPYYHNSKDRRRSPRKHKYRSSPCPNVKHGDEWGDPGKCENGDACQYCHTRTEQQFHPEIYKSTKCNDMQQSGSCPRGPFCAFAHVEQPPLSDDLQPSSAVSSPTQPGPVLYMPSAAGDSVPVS

B1: ENSG00000136451:be:win_151|CDS|ENSG00000136451|bound_else_gene|NA|bound_elsewhere_windowed (ssRNA)
RNA: GGGAGUUCUACAGUCCGACGAUCAAACCUCAGGGUGCACCAGAAACAUUAAAGGAUGCCAUUGGGAUUAAAAAAGAAAAACCCAAAACUUCAUUUGUGUGCACUUACUGCAGUAAAGCUUUCAGGGACAGCUAUCACCUGAGGCAACAGAGGAUUGAGCAUCA
B2: chr1:21217244:21217432:-|3pUTR|ENSG00000117298|msi1|total|mutant (ssRNA)
RNA: GGGAGUUCUACAGUCCGACGAUCCCGCUCCAGAGCUUUAAGGAAAAUGAAGUGAGACCCCUCCCCUCCGGCCUGGGGAGCCACCGGGCUGGCUUCUCUGUGGGUGCGUGGACGUGGGGUUGGGAGCUGGGAAUCUAUUUUUUGCAACAGAGGAUUGAGCAUCA
B3: chr9:14722165:14722672:-|CDS|ENSG00000147869|control|control|control (ssRNA)
RNA: GGGAGUUCUACAGUCCGACGAUCAUCCAGGGACUCAGAUAGUGAGCCCUUCCCACCUGGGACCCAGUCCCUCAUCCAGCCGAUAGAUGGAAUGAAAAUGGAGAAAUCUCCUCUUCGGGAAGAAGCCAAGAAAUUCUGGCACCACAACAGAGGAUUGAGCAUCA
B4: chr22:19969400:19969501:+|3pUTR|ENSG00000093010|msi1|total|mutant (ssRNA)
RNA: GGGAGUUCUACAGUCCGACGAUCUCCCCACUGGGCCUUGCUUACAGAAGAGGCAAUGGCUCAGACCAGCUCCCGCAUCCCUGCCGUUGCCUCCCUGGCCCAUGAGUGAGGAUGCAGUGCUGGUUUCUGCCCACCUACACCCCGCAACAGAGGAUUGAGCAUCA
B5: chr1:212100457:212100572:+|CDS|ENSG00000143476|unk|FALSE|unique (ssRNA)
RNA: GGGAGUUCUACAGUCCGACGAUCAGAAGAGGCUCUGUCUCCUCCGUCUCUCCCAAGCCACCUUCAUCUUUCAAGAUGUCGAUUAGAAACUGGGUGACCCGAACACCUUCCUCAUCACCACCCAUCACUCCACCUGCUUCGGAGCAACAGAGGAUUGAGCAUCA
B6: ENSG00000136451:be:win_2301|3pUTR|ENSG00000136451|bound_else_gene|NA|bound_elsewhere_windowed (ssRNA)
RNA: GGGAGUUCUACAGUCCGACGAUCAAAAAUCUACAAAUUGUGUUUUGCUAAGAAAAGCCUCAACUGACAGAGGAGAAGUCAAGUGUGUGGACAGGCAAGCUCCUAAUAAACAGAGUCCAGUGGGAUUCCUAUUUAGGAGCCAAGCAACAGAGGAUUGAGCAUCA
B7: chr1:100520103:100520216:+|3pUTR|ENSG00000079335|unk|total|mutant (ssRNA)
RNA: GGGAGUUCUACAGUCCGACGAUCUUACACAUGUGCCUACACCGACACACCAAGAAGUGGAUGUAUAUAAUACCGAAAGUAUACCGCAAAGUAAUUUUACUCUGAUAAUAAAAAUUGUUUGACAUGUAUUUUGUUAUGAACCGUCAACAGAGGAUUGAGCAUCA
B8: chr14:103503186:103503248:+|CDS_3pUTR|ENSG00000075413|msi1_unk|total|mutant (ssRNA)
RNA: GGGAGUUCUACAGUCCGACGAUCUGCUUCCAAAAUUGCCAAUGAGCUAAAGCUGUAACCCAGUGAUUAUGAUGUAAAUUAAGCCGCAAUUAAAGUGUUUUCCUGAACACUGAUGGAAAUGUACCGAAUAAUAUUCCGGCAAUACAACAGAGGAUUGAGCAUCA
B9: ENSG00000107863:be:win_3651|CDS|ENSG00000107863|bound_else_gene|NA|bound_elsewhere_windowed (ssRNA)
RNA: GGGAGUUCUACAGUCCGACGAUCUGUGAUAAGCAGUUUACUAAAAUCCUUCUUCAGAAAACUCCCUGAGCCUCUCUUCACAAAUGAUAAAUAUGCUGAUUUUAUUGAAGCCAAUCGUAAAGAAGAUCCUCUAGAUCGUCUGAACAACAGAGGAUUGAGCAUCA
B10: chr6:32292983:32294035:-|CDS|ENSG00000204296|control|control|control (ssRNA)
RNA: GGGAGUUCUACAGUCCGACGAUCACAGGAAGCCCAGGUAGAGAAGAGUGAGUUGAAGGUACCAAAAGGACAAGAAGGCCAAGUAGAGAAGACUGAGGCAGAUGUGCCAAAGGAACAAGAGGUCCAAGAAAAGAAGAGUGAGGCCAACAGAGGAUUGAGCAUCA
B11: chr4:68930545:68930765:-|CDS|ENSG00000135220|control|control|control (ssRNA)
RNA: GGGAGUUCUACAGUCCGACGAUCUCCCAUAUUUGGUGAUCAGCUUGAUAACAUAGCUCACAUGAAGGCCAAAGGAGCAGCUGUAGAAAUAAACUUCAAAACUAUGACAAGCGAAGAUUUACUGAGGGCUUUGAGAACAGUCAUCAACAGAGGAUUGAGCAUCA
B12: chr5:103029089:103029184:+|3pUTR|ENSG00000145730|msi1_unk|total|mutant (ssRNA)
RNA: GGGAGUUCUACAGUCCGACGAUCAACCAAGCUUUGAUUCCGAUUGAGUAAGAUUUACCCAGAAUGUCAGAUUCCUUUCCCUUCCGCACGUUUAAAGUUCUGUGUAUUUAAUUGUAAACUGUACCCGUCUGUGUGGGACUGUACCAACAGAGGAUUGAGCAUCA
B13: chr19:48970371:48970709:-|CDS|ENSG00000104812|control|control|control (ssRNA)
RNA: GGGAGUUCUACAGUCCGACGAUCCUAGGCCGGGUAGGACCCCCACUUUCCUAUCCUCUCCUGGCAAAUCAGCAGCUCCUGGCUAGGGGUCUUUGGUGCAGGGUGCAGGGUCUCAUCCUACUUGUAACAGUUGCUGUCCCUUUACAACAGAGGAUUGAGCAUCA
B14: chr1:35420597:35420698:+|3pUTR|ENSG00000146463|msi1|total|mutant (ssRNA)
RNA: GGGAGUUCUACAGUCCGACGAUCGUUCCUCUUAUUUUGUCUUUUGCACCAGUUUCUGGAGGCCCUUGUCAUUUCAAAAAGGACCGUCUCUUUUCUUACUCUGGCAAACCUGUGAGUGAUUCCACAAAGAUACAGUAUUACUUACAACAGAGGAUUGAGCAUCA
B15: chr18:70325936:70326038:+|CDS|ENSG00000170677|unk|total|mutant (ssRNA)
RNA: GGGAGUUCUACAGUCCGACGAUCAGCUUUCGCUCCCAUGGUAAAACACUUCACACCCGAAUUGAGCACUCAAAUGGCCGGUUCCGCUUUUAUGAACAGCCAGAUGUGGAAGGACAUACGUCCACCGUUGAUCUAAUUGAGCAUCAACAGAGGAUUGAGCAUCA
B16: chr6:44253573:44253761:+|CDS_3pUTR|ENSG00000096384|msi1_unk|total|mutant (ssRNA)
RNA: GGGAGUUCUACAGUCCGACGAUCUCGCAUGGAAGAAGUCGAUCCGGUCCGGAGUUCACCGUUGGAAAACUUGUGCCCUUGUACCGUGUCCCCAUGGGCUCCCACUGCAGCCUCGAGUGCCCCUGUCCCACCUGGCUCCCCCUGCAACAGAGGAUUGAGCAUCA
B17: chr15:48879495:48879609:+|3pUTR|ENSG00000255302|msi1|FALSE|bound_elsewhere (ssRNA)
RNA: GGGAGUUCUACAGUCCGACGAUCGACACUAAAUGUGUGUGAAUGUACAAAGAAAACAAACCAUUGCUUAUGCUGUUAUAUACUAGAGAAAUUUUGUUUUGCUUGCUGUUUUAACUUGACAGAUGAAGGACUUUAGUUGAACUUCAACAGAGGAUUGAGCAUCA
B18: chr3:141443649:141443750:+|CDS|ENSG00000177311|unk|FALSE|unique (ssRNA)
RNA: GGGAGUUCUACAGUCCGACGAUCCCUACCAUUGGACAAAAUGGAGGUUCAUUCACAGGUCCAGAACCUUUAUUAUCUGAAAAUAGGAUUGGUGAAUUUUCCAGUACCGGAAGUACUUUGCCAGACACGGACCACAUGGUUAAACAACAGAGGAUUGAGCAUCA
B19: chr11:56742830:56743766:-|CDS|ENSG00000172457|control|control|control (ssRNA)
RNA: GGGAGUUCUACAGUCCGACGAUCGACAAAGUAGCUGCUCUGUUCUACACCGUGAUCAACCCACUGCUCAACCCUCUCAUCUAUAGCCUGAGAAACAAAGAUAUCAAAGAGGCCUUCAGGAAAGCAACACAGACUAUACAACCACAACAGAGGAUUGAGCAUCA
B20: chr5:181194513:181194614:-|3pUTR|ENSG00000146054|unk|FALSE|unique (ssRNA)
RNA: GGGAGUUCUACAGUCCGACGAUCUCUUUGAGUGACAAGCCCGGGACAACAGCCAGUGGGCAUCACGGCUCUCCAGCACUCCUUAGCCGGAGGAUACAGAGUGAUGGGUGCAUCCUGACCAAUGCGACAACCAACACGUGCUCUCAACAGAGGAUUGAGCAUCA
B21: ENSG00000124766:be:win_2501|3pUTR|ENSG00000124766|bound_else_gene|NA|bound_elsewhere_windowed (ssRNA)
RNA: GGGAGUUCUACAGUCCGACGAUCGUGUUGGAUUAUUUCAAUGGUGGGGUUAAUAUAGCAUGUUAUCCUGUCUAUCUUUUAAAGAUUUCUGUAUAAGACUGUUGAGCAGUUUUUAAAAUAGUGUAGGAUAAUAUAAAAAGCAGACAACAGAGGAUUGAGCAUCA
B22: chr7:20412513:20412614:+|3pUTR|ENSG00000105855|msi1|FALSE|unique (ssRNA)
RNA: GGGAGUUCUACAGUCCGACGAUCUCCUUAAAAAUCCAGAGUUUAUAUUUUUUUUAUACCCUCACUUGUUUGCACUAACUUUAUAGUGGACCAAGGCUGUUACCAUAGGAAGGGACAAACUUCCUUGUAGGCAACUCAGUGUUACAACAGAGGAUUGAGCAUCA

Some of the results follow.

In the assay the target is T1, UNK ZnF1-6 (called full-length). The experiment in a line: nsRBNS (natural sequence RNA bind-n-seq); RBNS binding buffer (assumed for nsRBNS): 25 mM Tris pH 7.5, 150 mM KCl, 3 mM MgCl2, 0.01% Triton X-100, 500 ug/ml BSA, 20 U/ml SUPERase-In, 4 C; UNK is unkempt and MSI1 is Musashi-1; names of the RNAs are library labels; protein concentration not given here; high values mean tight binding.
Consider B1, for which the binding signal came to 0.442 enrichment R.

Regarding B2, the binding signal turned out to be 0.792 enrichment R.

As for B3, the binding signal amounted to 0.883 enrichment R.

With B4, the binding signal is 0.403 enrichment R.

Regarding B5, the binding signal was determined as 0.772 enrichment R.

B6 displayed a binding signal of 0.516 enrichment R.

As to B7, the binding signal came out at 0.344 enrichment R.

For the molecule B8, the binding signal was found to be 0.327 enrichment R.

In turn, B9 displayed a binding signal of 0.483 enrichment R.

The molecule B10 gave a binding signal of 1.07 enrichment R.

Take B11: the binding signal amounted to 0.551 enrichment R.

B12 had a binding signal of 0.347 enrichment R.

The molecule B13 returned a binding signal of 0.98 enrichment R.

In the case of B14, the binding signal was found to be 0.507 enrichment R.

In turn, B15 yielded a binding signal of 0.461 enrichment R.

B16 had a binding signal of 0.76 enrichment R.

In turn, B17 registered a binding signal of 0.582 enrichment R.

With B18, the binding signal turned out to be 0.432 enrichment R.

The molecule B19 returned a binding signal of 0.777 enrichment R.

B20: the binding signal was 0.573 enrichment R.

As for B21, the binding signal worked out at 1.78 enrichment R.

In the case of B22, the binding signal was 0.56 enrichment R.
